{"source": "paper PMC9600267", "about": "“The Antibacterial Type VII Secretion System of Bacillus subtilis: Structure and Interactions of the Pseudokinase YukC/EssB” (mBio, 2022)", "binders": {"B1": {"name": "YukC (full length), bacterial two-hybrid fusion (protein, UniProt P71070 1-451)", "chain": "MSGEQKSYLENQLEAVAEKTDAGYTFTFQREKIKLLDGLEANVIKDINPFFHKEIDVTDDEVIITIQPPSSYKAFRFMKAKDKKSKWQFAYQLVQAVQQHNLSRLNLIVAPENIVFDKGLTPYFLHYGVKESIPPYERDEERVWQELKAAAALAVDGAFAFEDYLKFNETLTFSAEAKAILDAESYDDLLELIQTHIDELEAKAKTYIHIPRKKWNIQRYIGLGLIVLLVPALIYSMYALFFAQPKHQAIVDSNRAFLNKQYSEVISTLSKYDAESLPESVQYQLATSYVEVENLGSAKTKNIENNLVTLQSDPQHFLYWIDYGRGEYKEAISIGRKLEYNDYIYFALAKYKQQLLSEDTNDEDIQKELDSVNSELEKAQKERQENKQSNSETSLVDTSEEQTQTDEEKQAEEKAAEEKAAAEEKAKKEEQKEKEDEKKETEKKDEKKDDK"}}, "experiment_in_all_cases": "two-hybrid; bacterial two-hybrid (BACTH) in E. coli BTH101; T25 (pKT25/pKNT25) and T18 (pUT18/pUT18C) fusions; spots on LB with X-Gal and IPTG, 25°C, imaged after 48 h", "key": {"[1]": {"molecular_target": "T1, YukB, bacterial two-hybrid fusion (Bacillus subtilis 168) (UniProt C0SPA7)", "T1 sequence": "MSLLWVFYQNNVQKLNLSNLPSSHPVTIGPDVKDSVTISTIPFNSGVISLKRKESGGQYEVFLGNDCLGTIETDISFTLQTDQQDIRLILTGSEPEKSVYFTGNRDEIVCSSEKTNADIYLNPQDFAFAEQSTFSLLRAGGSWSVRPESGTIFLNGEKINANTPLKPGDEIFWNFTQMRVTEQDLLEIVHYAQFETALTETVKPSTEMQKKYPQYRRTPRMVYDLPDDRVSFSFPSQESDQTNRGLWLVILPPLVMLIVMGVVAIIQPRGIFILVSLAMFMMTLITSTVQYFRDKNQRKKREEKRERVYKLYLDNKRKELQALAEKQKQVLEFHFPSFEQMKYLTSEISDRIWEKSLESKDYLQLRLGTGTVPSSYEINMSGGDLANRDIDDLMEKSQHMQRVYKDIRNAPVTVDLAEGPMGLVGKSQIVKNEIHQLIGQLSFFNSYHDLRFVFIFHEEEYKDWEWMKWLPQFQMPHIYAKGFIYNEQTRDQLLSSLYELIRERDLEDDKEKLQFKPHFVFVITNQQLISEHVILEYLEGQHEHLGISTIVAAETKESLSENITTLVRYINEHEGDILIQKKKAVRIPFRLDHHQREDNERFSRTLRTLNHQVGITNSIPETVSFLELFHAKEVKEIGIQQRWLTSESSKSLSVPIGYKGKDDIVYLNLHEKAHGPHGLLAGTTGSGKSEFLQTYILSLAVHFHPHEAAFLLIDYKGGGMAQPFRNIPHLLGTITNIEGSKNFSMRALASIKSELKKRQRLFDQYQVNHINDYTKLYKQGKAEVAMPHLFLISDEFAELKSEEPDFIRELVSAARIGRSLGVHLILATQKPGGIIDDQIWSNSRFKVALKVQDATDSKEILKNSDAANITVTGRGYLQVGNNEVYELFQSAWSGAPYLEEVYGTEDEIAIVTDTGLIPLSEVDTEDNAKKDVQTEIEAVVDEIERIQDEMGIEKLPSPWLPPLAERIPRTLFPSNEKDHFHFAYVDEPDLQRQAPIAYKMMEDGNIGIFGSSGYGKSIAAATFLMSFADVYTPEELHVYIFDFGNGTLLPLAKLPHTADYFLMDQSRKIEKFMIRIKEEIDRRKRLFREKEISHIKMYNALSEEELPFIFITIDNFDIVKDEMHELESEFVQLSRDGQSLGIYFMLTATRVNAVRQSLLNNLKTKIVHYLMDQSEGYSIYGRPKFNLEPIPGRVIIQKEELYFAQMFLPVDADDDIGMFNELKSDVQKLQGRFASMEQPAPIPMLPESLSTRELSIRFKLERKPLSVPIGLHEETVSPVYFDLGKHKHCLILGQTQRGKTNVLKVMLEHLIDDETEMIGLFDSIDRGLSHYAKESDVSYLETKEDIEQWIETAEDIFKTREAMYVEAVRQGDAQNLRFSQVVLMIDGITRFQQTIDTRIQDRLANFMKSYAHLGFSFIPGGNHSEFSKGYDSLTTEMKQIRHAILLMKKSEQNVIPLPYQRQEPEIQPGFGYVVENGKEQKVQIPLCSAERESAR"}, "[2]": {"molecular_target": "T2, YueC, bacterial two-hybrid fusion (Bacillus subtilis 168) (UniProt O32100)", "T2 sequence": "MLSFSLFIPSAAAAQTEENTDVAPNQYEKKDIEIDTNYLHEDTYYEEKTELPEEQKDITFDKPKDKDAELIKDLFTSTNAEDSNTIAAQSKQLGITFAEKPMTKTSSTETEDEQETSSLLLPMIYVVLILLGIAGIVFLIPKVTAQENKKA"}, "[3]": {"molecular_target": "T3, YukC (full length), bacterial two-hybrid fusion (Bacillus subtilis 168) (UniProt P71070)", "T3 sequence": "B1 chain"}, "[4]": {"molecular_target": "T4, YukD, bacterial two-hybrid fusion (Bacillus subtilis 168) (UniProt P71071)", "T4 sequence": "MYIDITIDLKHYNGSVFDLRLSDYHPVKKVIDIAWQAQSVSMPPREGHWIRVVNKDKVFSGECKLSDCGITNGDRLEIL"}, "[5]": {"molecular_target": "T5, YukE, bacterial two-hybrid fusion (Bacillus subtilis 168) (UniProt C0SP85)", "T5 sequence": "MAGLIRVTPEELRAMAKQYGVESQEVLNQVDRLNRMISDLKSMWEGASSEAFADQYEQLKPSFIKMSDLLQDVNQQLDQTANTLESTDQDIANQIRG"}}, "note": "These are yes or no findings as the source states them, for the method shown. Some results given as binding are weak or reduced against the parent protein; the word gives no strength. Where a sequence is shown, tags or fusion partners need not be part of it."}
{"binder": "B1", "values": [{"measurement": "binding", "setting": "[1]", "value": "binds"}, {"measurement": "binding", "setting": "[2]", "value": "binds"}, {"measurement": "binding", "setting": "[3]", "value": "binds"}, {"measurement": "binding", "setting": "[4]", "value": "binds weakly"}, {"measurement": "binding", "setting": "[5]", "value": "binds"}]}
